In PubChem BioAssay AID1159614 (National Center for Advancing Translational Sciences (NCATS), 2016):
In all, about 45,000 compounds went through this assay and about 65 (0.1%) were called active. Calls come from the whole dose curve; as a rule, active = well fitted activation curve with a large enough effect; inconclusive = small, poorly fitted or top-dose-only effect; inactive = no such curve, though single readings can be large or run the other way. The list shows a part of the results.

molecular target: Galactocerebrosidase (Homo sapiens) (UniProt P54803); test: A Novel Cell-Based Assay to Identify Small Molecules for B -Galactocerebrosidase; conditions: 145M-Twi-hGALC-G270D cells (Twitcher mouse brain line with human GALC G270D), HMU-beta-Gal fluorescence, 48 h; series mostly up to 57.5 µM; activation: at the top concentration; note: 0% is about no effect; nearly all actives have a fitted effect of over 65% in size
Method in brief: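 Brain-derived Twitcher mouse 145M-Twi cells stably expressing human GALC-G270D or wild-type GALC, treated live, then residual GALC activity read by fluorescence of HMU-b-Gal substrate (0.1 mM final) in citrate-phosphate buffer pH 5.2 with sodium taurocholate. Signal increase indicates enhancement.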

UniProt P54803, sequence (P54803 whole entry, looked up): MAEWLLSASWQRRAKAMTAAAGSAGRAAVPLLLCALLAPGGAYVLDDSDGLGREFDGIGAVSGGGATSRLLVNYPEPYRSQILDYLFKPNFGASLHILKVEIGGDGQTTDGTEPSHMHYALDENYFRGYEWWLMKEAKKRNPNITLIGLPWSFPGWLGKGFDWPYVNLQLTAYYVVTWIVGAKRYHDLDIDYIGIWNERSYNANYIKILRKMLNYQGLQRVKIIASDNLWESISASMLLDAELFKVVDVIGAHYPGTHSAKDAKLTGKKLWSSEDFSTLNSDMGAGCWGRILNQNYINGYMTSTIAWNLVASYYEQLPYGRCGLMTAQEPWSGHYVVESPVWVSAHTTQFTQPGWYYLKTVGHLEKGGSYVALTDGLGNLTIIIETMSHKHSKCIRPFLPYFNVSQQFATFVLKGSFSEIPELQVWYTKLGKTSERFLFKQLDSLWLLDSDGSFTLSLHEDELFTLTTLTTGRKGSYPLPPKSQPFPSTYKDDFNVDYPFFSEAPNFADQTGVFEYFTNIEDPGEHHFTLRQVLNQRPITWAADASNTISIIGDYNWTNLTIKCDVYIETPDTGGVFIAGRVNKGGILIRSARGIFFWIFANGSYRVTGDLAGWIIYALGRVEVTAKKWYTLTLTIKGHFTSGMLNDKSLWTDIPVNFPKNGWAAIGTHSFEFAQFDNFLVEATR

activation, inactive:
COc1ccccc1NC(=O)CN1C(=O)C(C)(C)c2ccccc21 -23.3%
Cc1ccc(CNC(=O)CN2C(=O)C3CCCCN3c3ccc(C(=O)N(C)C)cc32)cc1 (stereo unspecified) -10.6%
CCc1nnc2c(NCc3ccccc3)nc3ccccc3n12 -11.6%
Cc1ccc(C(=O)N2CCN(c3ccccc3)CC2)cc1NC(=O)c1nsc2ccccc12 -18.1%
N#Cc1c(C(F)(F)F)cc(-c2cccs2)nc1SCC(=O)Nc1cccc(Br)c1 -27.2%
Cc1ccc(-c2nnc(Nc3ccc(F)cc3)c3ccccc23)cc1S(=O)(=O)NC(C)C -17.9%
CCOc1ccc(-c2cc(NC(=O)Nc3ccccc3Cl)c(C(=O)OC)s2)cc1 -13.6%
O=C(NCCCN1CCN(c2ccccc2F)CC1)c1ccc2nc(Cc3ccccc3)oc2c1 -22.9%
CCOC(=O)COc1ccc(CC)cc1C(=O)c1ccn2nc(-c3ccc(C)cc3)cc2n1 7.88%
CCN(CC)CCNC(=O)CN1C(=O)CSc2ccc(S(=O)(=O)N3CCOCC3)cc21 -6.06%
Cc1ccc(/C=C/c2onc(C)c2S(=O)(=O)N2CCC(C(=O)Nc3cccc(C#N)c3)CC2)cc1 -23.8%
Cc1ccccc1CSc1nc2c([nH]c3ccccc32)c(=O)n1-c1ccccc1 -0.176%
Cn1c(-c2cccc(Br)c2)cnc1NCc1cccc(F)c1 -6.96%
Cc1cccc(-c2nnc(SCC(=O)Nc3ccc(C)c(C)c3)o2)c1 -18.5%
COc1ccc2cc1Oc1ccc(cc1)C[C@H]1c3c(cc4c(c3Oc3cc5c(cc3OC)CCN(C)[C@@H]5C2)OCO4)CCN1C -14.2%
CC(C)c1ccc(NC(=O)C2CCCN(S(=O)(=O)c3ccc4[nH]c(=O)oc4c3)C2)cc1 (stereo unspecified) -9.03%
CCCN(CCC)CCCNC(=O)Cn1ncn2c(cc3sc(CC)cc32)c1=O -11%
Cc1ccc(CNC(=O)CN2N=C(c3ccc(C)cc3)CCC2=O)cc1 -17.7%
CCc1ccccc1NC(=O)c1nc2nc(C)cc(C(F)F)n2n1 -9.41%
CCN(CC)S(=O)(=O)c1ccc2c(c1)c(=O)c(C(=O)N1CCN(c3ccc(OC)cc3)CC1)cn2C -7.72%
COc1cccc(CN2C(=O)c3ccccc3C2C(=O)NCCc2ccccc2)c1 (stereo unspecified) -10.8%
CCC(C)NC(=O)c1ccc(Cn2c(=O)c3cccn3c3cccnc32)cc1 (stereo unspecified) 0.0742%
COc1ccc(Nc2nnc(-c3cc4cc(Cl)ccc4oc3=O)s2)cc1 -7.11%
COc1cc(SC)ccc1C(=O)N1CCn2c3c(c4cc(C)ccc42)CCCC31 (stereo unspecified) -13.6%
CCCS(=O)(=O)c1c(S(=O)(=O)CCC)c2cc(C(C)(C)C)ccn2c1C(=O)c1ccc(C)cc1 -6.43%
O=C(CCCCCn1c(=O)[nH]c2ccsc2c1=O)NCc1ccccc1 -13.6%
